Source: patent US6730699B2, “Water soluble paclitaxel derivatives” (priority 2001, dated 2004)

Experiments:
HCa-I hepatocarcinoma = conditions: for Time to Grow 500-2000 mm^3: mean ± SD
MCa-4 mammary carcinoma [1] = conditions: for Time to Grow 500-2000 mm^3: mean ± SD
FSa-II fibrous sarcoma = conditions: for Time to Grow 500-2000 mm^3: mean ± SD
MCa-4 mammary carcinoma [2] = conditions: single dose 40 mg/kg, tumors 8 mm at treatment
B16 melanoma cells [3] = conditions: 40-h incubation, cell count
B16 melanoma cells [4] = test: cells; conditions: Mus musculus, B16, 40 h
[5] = tested on: rat mammary adenocarcinoma 13762F; conditions: single dose 20 mg equivalent paclitaxel/kg
OCA-1 ovarian carcinoma = conditions: paclitaxel alone or with PG, same dose as PG-TXL
bovine brain tubulin = conditions: 1 μM, 32° C., 1.0 mM GTP, 1 mg/ml tubulin
MCa-4 mammary carcinoma [6] = test: Whole-body gamma scintigraphy; conditions: i.v. via tail vein, MCa-4 tumor 12 mm

Poly-Glutamic Acid-Paclitaxel [PG-TXL]
AGD (absolute growth delay) (HCa-I hepatocarcinoma; 40 mg/kg): 0.9 days
Time to Grow 500-2000 mm^3 (HCa-I hepatocarcinoma; 40 mg/kg single i.v.): 8.2 ± 0.7 (5) days
AGD (absolute growth delay) (HCa-I hepatocarcinoma; 80 mg/kg): 1.3 days
Time to Grow 500-2000 mm^3 (HCa-I hepatocarcinoma; 80 mg/kg single i.v.): 8.6 ± 0.2 (5) days
AGD (absolute growth delay) (HCa-I hepatocarcinoma; 160 mg/kg): 3.7 days
Time to Grow 500-2000 mm^3 (HCa-I hepatocarcinoma; 160 mg/kg single i.v.): 11.0 ± 0.8 (4) days
AGD (absolute growth delay) (MCa-4 mammary carcinoma [1]; 40 mg/kg): 3.8 days
Time to Grow 500-2000 mm^3 (MCa-4 mammary carcinoma [1]; 40 mg/kg single i.v.): 8.6 ± 1.2 (4) days
AGD (absolute growth delay) (MCa-4 mammary carcinoma [1]; 60 mg/kg): 9.4 days
Time to Grow 500-2000 mm^3 (MCa-4 mammary carcinoma [1]; 60 mg/kg single i.v.): 14.2 ± 1.1 (5) days
AGD (absolute growth delay) (MCa-4 mammary carcinoma [1]; 120 mg/kg): 39.6 days
Time to Grow 500-2000 mm^3 (MCa-4 mammary carcinoma [1]; 120 mg/kg single i.v.): 44.4 ± 2.9 (5) days
AGD (absolute growth delay) (FSa-II fibrous sarcoma; 80 mg/kg): 1.9 days
Time to Grow 500-2000 mm^3 (FSa-II fibrous sarcoma; 80 mg/kg single i.v.): 3.8 ± 0.4 (6) days
AGD (absolute growth delay) (FSa-II fibrous sarcoma; 160 mg/kg): 3.2 days
Time to Grow 500-2000 mm^3 (FSa-II fibrous sarcoma; 160 mg/kg single i.v.): 5.1 ± 0.3 (13) days
histological changes in tumor (OCA-1 tumors; 160 mg equivalent paclitaxel/kg): mild increase in mitotically arrested cells and apoptotic cells
histological changes in tumor (OCA-1 tumors; 160 mg equivalent paclitaxel/kg, by 96 h): extensive edema and necrosis

polyethylene glycol-paclitaxel [PEG-paclitaxel]
time for the tumor to reach 12 mm in diameter (MCa-4 mammary carcinoma [2]): 8.5 days

diethylenetriaminepentaacetic acid-paclitaxel [DTPA-paclitaxel]
IC50 (B16 melanoma cells [3]): 7.5 nM
time for the tumor to reach 12 mm in diameter (MCa-4 mammary carcinoma [2]): 12.1 days

CC(=O)O[C@H]1C(=O)[C@@]2(C)[C@H]([C@H](OC(=O)c3ccccc3)[C@]3(O)C[C@H](OC(=O)[C@H](O)[C@@H](NC(=O)c4ccccc4)c4ccccc4)C(C)=C1C3(C)C)[C@]1(OC(C)=O)CO[C@@H]1C[C@@H]2O [Paclitaxel, paclitaxel]
IC50 (B16 melanoma cells [4]): 15 nM
tumor growth delay (2,000 to 10,000 mm^3 vs saline) [5]: 5 days
tumor growth (OCA-1 ovarian carcinoma): tumors regrew to levels comparable to an untreated control group after ten days
AGD (absolute growth delay) (HCa-I hepatocarcinoma; 80 mg/kg): -0.9 days
Time to Grow 500-2000 mm^3 (HCa-I hepatocarcinoma; 80 mg/kg single i.v.): 6.4 ± 0.5 (5) days
AGD (absolute growth delay) (MCa-4 mammary carcinoma [1]; 40 mg/kg): 4.2 days
Time to Grow 500-2000 mm^3 (MCa-4 mammary carcinoma [1]; 40 mg/kg single i.v.): 9.0 ± 0.6 (4) days
AGD (absolute growth delay) (MCa-4 mammary carcinoma [1]; 60 mg/kg): 4.5 days
Time to Grow 500-2000 mm^3 (MCa-4 mammary carcinoma [1]; 60 mg/kg single i.v.): 9.3 ± 0.3 (5) days
tubulin polymerization (absorbance at 340 nm) (bovine brain tubulin): clear increase in absorbance
AGD (absolute growth delay) (FSa-II fibrous sarcoma; 80 mg/kg): 2.3 days
Time to Grow 500-2000 mm^3 (FSa-II fibrous sarcoma; 80 mg/kg single i.v.): 4.2 ± 0.3 (6) days
histological changes in tumor (OCA-1 tumors; 80 mg/kg, especially day 1): marked nuclear fragmentation with formation of apoptotic bodies
time for the tumor to reach 12 mm in diameter (MCa-4 mammary carcinoma [2]): 9.4 days

O=C([O-])CN(CCN(CC(=O)[O-])CC(=O)[O-])CCN(CC(=O)[O-])CC(=O)[O-].[111In+3].[H+].[H+] [^111In-DTPA]
tumor uptake by gamma scintigraphy (MCa-4 mammary carcinoma [6]): negligible retention in the tumor

Like-named read-outs stand apart in the source and are kept apart here.
